Experimental data published in PMC7671991.
These are yes or no findings as the source states them, for the method shown. Some entries that bind do so weakly or less than the wild type. Tags and fused reporters may be left off the sequences shown.

Chains of the proteins cited; added tags and fusions are not shown.
UniProt Q92624: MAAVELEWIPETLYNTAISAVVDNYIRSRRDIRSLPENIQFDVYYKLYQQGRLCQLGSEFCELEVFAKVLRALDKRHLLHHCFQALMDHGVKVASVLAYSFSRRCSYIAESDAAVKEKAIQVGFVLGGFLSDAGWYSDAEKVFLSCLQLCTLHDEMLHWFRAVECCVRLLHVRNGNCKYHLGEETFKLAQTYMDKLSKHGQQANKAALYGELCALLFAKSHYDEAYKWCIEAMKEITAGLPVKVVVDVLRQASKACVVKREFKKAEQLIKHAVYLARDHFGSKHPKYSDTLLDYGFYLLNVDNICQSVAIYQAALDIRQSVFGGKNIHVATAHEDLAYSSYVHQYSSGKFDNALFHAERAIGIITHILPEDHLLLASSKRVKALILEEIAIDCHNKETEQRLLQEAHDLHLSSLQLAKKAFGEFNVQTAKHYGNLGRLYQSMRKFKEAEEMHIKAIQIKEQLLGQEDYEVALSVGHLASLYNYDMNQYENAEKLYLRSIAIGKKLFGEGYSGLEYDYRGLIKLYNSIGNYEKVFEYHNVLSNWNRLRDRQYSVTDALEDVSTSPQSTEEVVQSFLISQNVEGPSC

B1: GAL4 AD-RME-6 (561-1170) (receptor mediated endocytosis-6 = Gapvd1) (domain or fragment, UniProt Q6PAR5 561-1170)
chain: KTLRFSLCSDNLEGISEGPSNRSNSVSSLDLEGESVSELGAGPSGSNGVEALQLLEHEQATTQDNLDDKLRKFEIRDMMGLTDDRDISETVSETWSTDVLGSDFDPNVDEDRLQEIAGAAAENVLGSLLCLPGSGSVLLDPCTGSTISETTSEAWSVEVLPSDSEAPDLKQEERLQELESCSGLGSTSDDTDVREVSSRPSTPGLSVVSGISATSEDIPNKIEDLRSECSSDFGGKDSVTSPDMDDIAHGAHQLTSPPSQSESLLAMFDPLSSHEGASAVVRPKVHYARPSHPPPDPPILEGAVGGNEARLPNFGSHVLTAAEMEAFKQRHSYPERLVRSRSSDIVSSVRRPMSDPSWNRRPGNEELPPAAATGATSLVAAPHSSSSSPSKDSSRGETEERKDSDDERSDRSRPWWRKRFVSAMPKAPIPFRKKEKQEKDKDDLGPDRFSTLTDEPSPRLSAQAQVAEDILDKYRNAIKRTSPSEGAMANDESAEVMGDGESAHDSPREEALQNISADDLPDSASQAAHPQDSAFSYRDVKKKLRLALCSADSVAFPVLTHSTRNGLPDHTDPEDNEIVCFLKVQIAEAINLQDKSLMAQLQETMRCVCR
B2: GAL4 AD-Krba1 (514-1044) (KRAB-A domain containing 1) (domain or fragment, UniProt Q6NXZ1-1 514-1043)
chain: QAAWPCSSAVNRGLKRTEPRNWTGDREGLRGEASEPPHLRQRPGEVPSRSLHQDSPQTCTSTCHQVTTRPGTWQWPQEETATMPSPLHRLENSLRGILPVRPLRFTCVTGPGPSPSPCSSSSFSSSDGEDLRPEPAFWQSPLQQKDQPPSCKDPVRLCPVSGASPRVNSNSCSAEDRERTEPRDCSSLSAGRAEEKPHPPRREDGAERTRQPGPVTNAEGKGAAAGHPSPAPQLEEKPEPKGTEDSRDLEPGHRPPSAAARTQGKLLSGDPPESPSKSPLPTTVLSKWSPTSLQPPCPCGRSLQQELHNLGTALTDKLDRLAAALAGLTQEVATMKTQMDQLRRHPRSLGPKGQGSWQLALPQRPRWVNRLGHRHLPYWRQKGPTRPRPKILRTQAEGCKTSDRPGLSRGKGSLVPQLPPEASLVESSRPTCSSSQQISSTPGGHTVLTAHPPLEHTACHQNPLSPSVPTSVQVPLVASPATSADTEPPAARVAAISIPNQPKEPDSLLGEALSRDLWGGDHRDPRWGAH
B3: GAL4 AD-sf3b155 (1-598) (splicing factor 3b, subunit 1) (domain or fragment, UniProt Q99NB9 1-598)
chain: MAKIAKTHEDIEAQIREIQGKKAALDEAQGVGLDSTGYYDQEIYGGSDSRFAGYVTSIAATELEDDDDDYSSSTSLLGQKKPGYHAPVALLNDIPQSTEQYDPFAEHRPPKIADREDEYKKHRRTMIISPERLDPFADGGKTPDPKMNARTYMDVMREQHLTKEEREIRQQLAEKAKAGELKVVNGAAASQPPSKRKRRWDQTADQTPGATPKKLSSWDQAETPGHTPSLRWDETPGRAKGSETPGATPGSKIWDPTPSHTPAGAATPGRGDTPGHATPGHGGATSSARKNRWDETPKTERDTPGHGSGWAETPRTDRGGDSIGETPTPGASKRKSRWDETPASQMGGSTPVLTPGKTPIGTPAMNMATPTPGHIMSMTPEQLQAWRWEREIDERNRPLSDEELDAMFPEGYKVLPPPAGYVPIRTPARKLTATPTPLGGMTGFHMQTEDRTMKSVNDQPSGNLPFLKPDDIQYFDKLLVDVDESTLSPEEQKERKIMKLLLKIKNGTPPMRKAALRQITDKAREFGAGPLFNQILPLLMSPTLEDQERHLLVKVIDRILYKLDDLVRPYVHKILVVIEPLLIDEDYYARVEGREIIS

Molecular target: LexA BD-PAT1a full-length (protein interacting with APP tail 1a) (human) (UniProt Q92624)
Test: two-hybrid; LexA BD baits (pHybLex/Zeo) and GAL4 AD preys (pPC86) in yeast L40; growth on selection medium lacking histidine with 20 mM 3-aminotriazole; screen of an adult mouse brain cDNA library and retransformation of the isolated clones

B1 was tested. Which binding did it give?
Its binding is “binds”.

B2 was tested. Which binding did it give?
Its binding is “binds”.

For B3, which binding is on record?
Its binding is “binds”.

Which binding does the source give for MAAAGSAAVSGAGTPVAGPTGRDLFAEGLLEFLRPAVQQLDSHVH (domain or fragment, UniProt Q9Z266 1-45) [GAL4 AD-Snapin (1-45)] here?
The binding was “no binding”.
